In all, about 33,000 sequences were measured (“E-score (-0.5 to 0.5)”: median about -0.012, highest 2% from about 0.29 on). The list shows a part of the results.
What follows are sequences tested against T1, Ybr033w (UniProt P38073) (assay: PBM E-score (8-mer binding enrichment) (E-score (-0.5 to 0.5)); higher = stronger / more preferred TF binding; most listed sequences are background and not binding sites). Conditions: protein concentration: 200 nM; construct: GST-full length.
T1 sequence: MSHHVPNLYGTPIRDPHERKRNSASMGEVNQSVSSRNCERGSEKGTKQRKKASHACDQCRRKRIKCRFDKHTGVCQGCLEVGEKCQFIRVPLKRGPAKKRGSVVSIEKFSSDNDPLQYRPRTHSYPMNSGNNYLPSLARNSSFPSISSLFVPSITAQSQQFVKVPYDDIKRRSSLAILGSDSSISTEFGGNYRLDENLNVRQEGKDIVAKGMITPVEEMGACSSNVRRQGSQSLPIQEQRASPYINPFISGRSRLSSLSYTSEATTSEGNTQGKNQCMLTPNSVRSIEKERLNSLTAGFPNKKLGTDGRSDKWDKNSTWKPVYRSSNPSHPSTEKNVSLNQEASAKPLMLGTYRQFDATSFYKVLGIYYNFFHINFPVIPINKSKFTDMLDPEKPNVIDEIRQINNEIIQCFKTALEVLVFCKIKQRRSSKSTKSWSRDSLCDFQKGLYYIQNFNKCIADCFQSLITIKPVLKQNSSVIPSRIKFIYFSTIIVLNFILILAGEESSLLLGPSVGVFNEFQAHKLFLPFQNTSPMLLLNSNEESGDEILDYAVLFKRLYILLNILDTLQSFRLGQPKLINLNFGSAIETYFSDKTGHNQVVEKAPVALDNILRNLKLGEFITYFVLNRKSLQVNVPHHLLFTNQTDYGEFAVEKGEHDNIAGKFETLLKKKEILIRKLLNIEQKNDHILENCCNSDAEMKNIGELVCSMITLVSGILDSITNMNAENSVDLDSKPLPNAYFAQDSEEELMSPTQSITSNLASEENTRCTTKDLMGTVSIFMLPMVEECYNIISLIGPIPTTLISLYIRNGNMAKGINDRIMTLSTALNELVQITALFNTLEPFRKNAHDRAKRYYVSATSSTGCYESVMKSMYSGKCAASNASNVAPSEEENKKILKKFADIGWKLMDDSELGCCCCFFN
In short: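 Detection of bound protein used fluorescent anti-GST, with scans normalised by masliner. The proteins were GST-tagged yeast transcription factors applied at about 100-200 nM to universal all-10-mer Agilent arrays made double-stranded by primer extension. Each ungapped eight-base word, pooled with its reverse complement, was scored with an E-score from the Universal PBM Analysis Suite.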

Sequence	PBM E-score
ACTATGAA	0.192
ATGGGCGA	-0.162
CGCAGCTC	-0.18
AGGTCGCG	-0.191
ACCTACCA	0.00172
CGAGAGGC	-0.372
AAATACTC	0.316
GCGTCTAA	-0.143
ATGGCGGG	-0.155
CGCTAGAA	-0.0487
CGGCAGCA	-0.191
GCGCTTAA	-0.0639
CGACTTCC	-0.263
TCGTGGCA	0.00883
ACCTGCTA	0.00309
AGTTGAGG	-0.0884
ACTTATCC	0.0884
AAGGTTTC	0.0283
GCCTGGAC	-0.199
AGAGAAGG	-0.0638
ATTGAATC	0.0535
AGACTAAG	-0.0468

Sequence	PBM E-score
ATTTCACG	0.105
GAGCTTGA	-0.123
CGGAACCC	-0.223
ATAACTTC	0.0786
CCCTTGAG	-0.0277
GCCACTGA	-0.115
GAAGGTTA	-0.0452
AAGGAGGA	-0.0927
CCATAACG	-0.104
GAGCCTGA	-0.173
GGAAAATA	0.414
AACGTCTA	0.0687
GACATACA	0.159
ACTAACTG	0.179
GCCAGAGA	0.00623
CATGAGGG	-0.195
GTAGAGGA	-0.167
CATTTGTC	0.0307
CATACTGA	0.212
ACCCTCGG	-0.139
GCTGTATA	0.0885
ACACTGGA	0.0728

Sequence	PBM E-score
AACGCCGT	0.0469
AATCAGCG	0.0406
CCTATTGC	0.0416
AAATACCT	0.171
GCATGGGA	-0.218
AAATTCTC	0.159
GATCCCAA	-0.0157
CGACCTGA	0.0111
AGTCTCGC	-0.135
CTAGGGCA	-0.302
TAGGTGAA	0.171
CTCCCCAG	-0.263
ATGTGTTA	0.163
TCTCTTCA	0.0417
AAAGCCTA	-0.0721
CGCGTAAA	0.169
GCGACCAA	0.0307
AACGGCAA	-0.0891
CATTCATA	0.187
ACCCTAAG	-0.0353
CCCGGTAC	-0.284
ATGCATAA	0.177

Sequence	PBM E-score
CCTGCACA	-0.187
CTTGGTGC	-0.116
GAATCCTA	0.0954
ATGCATCC	-0.214
CTTCCGCA	0.0786
CTATGGAA	0.0439
CGAGTGGC	-0.32
ACATATCA	0.221
CTGGAAAG	-0.189
CAAACATG	-0.017
ACCTTGGC	-0.0759
TGCGTCCA	-0.168
AGTTCGTA	0.113
AGCCAAAA	0.149
ACGTCGTC	0.0162
CACAATAC	0.0573
CTTGGTTC	0.136
CGGCATAA	0.106
GACTATGA	0.0742
CCCAAGTC	-0.203
